Assay results reported in PubChem BioAssay AID588342 (National Center for Advancing Translational Sciences (NCATS), 2011).
Values joined by “and” are separate entries in the source; they are usually repeats but may differ in a detail not shown here. Equal entries are not always repeated. The campaign covered roughly 360,000 compounds. About 25,000 (6.9%) were called active. The shares of active, inactive and inconclusive entries below differ from those in the screen. Calls come from the whole dose curve; as a rule, active = well fitted inhibition curve with a large enough effect; inconclusive = small, poorly fitted or top-dose-only effect; inactive = flat fitted curve, though single readings scatter. Potencies beside an inconclusive call are fits to weak or partial responses and may not hold up.

Biological target: Luciferin 4-monooxygenase (Photinus pyralis) (UniProt P08659)
Chain of UniProt P08659 (P08659 whole entry, looked up): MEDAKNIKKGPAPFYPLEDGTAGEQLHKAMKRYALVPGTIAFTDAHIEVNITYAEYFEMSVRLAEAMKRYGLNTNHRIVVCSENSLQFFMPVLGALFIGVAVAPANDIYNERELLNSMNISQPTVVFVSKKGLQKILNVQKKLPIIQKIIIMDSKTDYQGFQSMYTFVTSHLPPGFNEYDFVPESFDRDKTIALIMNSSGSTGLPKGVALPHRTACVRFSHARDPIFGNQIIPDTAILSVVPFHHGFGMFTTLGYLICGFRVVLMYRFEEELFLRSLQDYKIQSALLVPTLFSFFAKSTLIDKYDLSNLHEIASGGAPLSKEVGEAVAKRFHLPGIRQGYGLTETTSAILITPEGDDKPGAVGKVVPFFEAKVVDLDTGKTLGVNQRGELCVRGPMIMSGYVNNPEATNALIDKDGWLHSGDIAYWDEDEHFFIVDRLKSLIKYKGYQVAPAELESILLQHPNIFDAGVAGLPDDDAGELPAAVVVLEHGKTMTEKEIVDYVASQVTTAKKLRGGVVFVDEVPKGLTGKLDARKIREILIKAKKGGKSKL
Assay: qHTS profiling assay for firefly luciferase inhibitor/activator using purifed enzyme and Km concentrations of substrates (counterscreen for miR-21 project); note: nearly all actives have a fitted effect of over 55% in size;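 for activity change, negative = inhibition: plate controls were vehicle for no effect and reference inhibitor for full effect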
Settings: purified FLuc, luminescence inhibition; series mostly up to 57.5 µM; activity change, negative = inhibition: at the top concentration
How it was run: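 Biochemical qHTS of compounds, final roughly 60 µM downward over six points, against 10 nM purified firefly luciferase using Km concentrations of substrates (10 uM D-luciferin, 10 uM ATP) in Tris acetate pH 7.5 buffer; luminescence output.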
Potency is the fitted concentration of half-maximal effect; tags give direction and shape of the fitted curve.

| Compound | activity change, negative = inhibition | Potency |
| --- | --- | --- |
| O=C(COC(=O)c1ccco1)NCCNC(=O)COC(=O)c1ccco1 | inactive: 4.07% | – |
| Cc1ccc(OCc2ccc(C(=O)NCC3CCCO3)cc2)cc1C (configuration not stated) | – | inconclusive: 37.9 µM [inhibitor, partial curve, poor fit] |
| Cc1ccc(S(=O)(=O)Oc2ccc(/C=N/N=C3/NC(=O)C(CC(=O)O)S3)cc2)cc1 (configuration not stated) | – | inconclusive: 33.8 µM [inhibitor, single point] |
| O=C(NCCC1=CCCCC1)c1ccc(Cl)c([N+](=O)[O-])c1 | – | inconclusive: 10.7 µM [inhibitor, partial curve] |
| CC(C)(C)c1ccc(NC(=O)COc2ccc(-n3ccnc3)cc2)cc1 | – | active: 15.1 µM |
| O=C(NC1CCCCC1)C(=S)NCc1ccccc1 | – | active: 21.3 µM |
| Cc1ccc(-c2noc(C3CCCN(C(=O)C4CCCCC4)C3)n2)o1 (configuration not stated) | – | inconclusive: 30.1 µM [inhibitor, single point] |
| CN(c1ccccc1)S(=O)(=O)c1cccc(C(=O)OCC(=O)NCc2ccc3c(c2)OCO3)c1 | – | inconclusive: 19 µM [inhibitor, partial curve] |
| CCN1CCN(Cc2ccc(NC(=O)c3ccc(C)c(NC(=O)N4CCNC4=O)c3)cc2C(F)(F)F)CC1 | – | inconclusive: 37.9 µM [inhibitor, partial curve, poor fit] and inconclusive: 21.3 µM [inhibitor, partial curve, poor fit] |
| O=C(O)CC/C(=C\c1ccc(Cl)c([N+](=O)[O-])c1)c1nc2ccccc2s1 | inactive: 7.53% | – |
| Cc1cc(C)nc(Nc2cccc(Cl)c2)n1 | – | inconclusive: 15.1 µM [inhibitor, partial curve, poor fit] |
| Cc1ccc(N2CC(NC(=O)Cc3ccc(F)cc3)CC2=O)cc1 (configuration not stated) | inactive: -1.44% | – |
| Cn1c(SCC(=O)Nc2cccc(C(=O)O)c2)nnc1-c1cc2cc(Br)ccc2o1 | – | active: 2.69 µM |
| O=C(N/N=C/c1cccnc1)c1cccc(NC(=O)c2ccccc2Cl)c1 | – | inconclusive: 15.1 µM [inhibitor, partial curve] |
| Cc1cccc(CSc2nc(=O)c3c(n2C)NC(=O)CC3c2cccc(O)c2)c1 (configuration not stated) | – | inconclusive: 23.9 µM [inhibitor, partial curve, poor fit] |
| O=C(O)CN1C(=O)/C(=C\c2cccc(OCc3ccc(F)cc3)c2)SC1=S | – | inconclusive: 30.1 µM [inhibitor, partial curve, poor fit] |
| COc1ccc2c(c1OC)C(=O)N1N=C(c3ccc(F)cc3)CC21 (configuration not stated) | – | inconclusive: 37.9 µM [inhibitor, partial curve, poor fit] |
| CC(=O)c1nn(-c2ccc(C(F)(F)F)cc2)c(=O)[nH]c1=O | inactive: 2.68% | – |
| CC(=O)Nc1cccc(OCCCNC(=O)c2ccc(F)cc2)c1 | – | inconclusive: 37.9 µM [inhibitor, partial curve, poor fit] |
| CCOc1ccc(C(=O)NCCn2cc(SCC(=O)Nc3cc(C)on3)c3ccccc32)cc1 | – | active: 12 µM |
| CCc1ccc(C(=O)CN2C(=O)NC(C)(c3ccc(C)cc3)C2=O)cc1 (configuration not stated) | – | inconclusive: 16.9 µM [inhibitor, partial curve, poor fit] |

| Compound | activity change, negative = inhibition | Potency |
| --- | --- | --- |
| COc1ccc(NC(=O)N2CCc3ccccc3C2)c(OC)c1 | – | inconclusive: 26.9 µM [inhibitor, single point] |
| CCOc1ccc(CCNC(=O)c2cc(Nc3ccc(C)cc3C)nc3ccccc23)cc1OCC | – | inconclusive: 6.75 µM [inhibitor, full curve] |
| CC(C)c1ccc(N(C(=O)c2csnn2)C(C(=O)NC2CCCC2)c2cccnc2)cc1 (configuration not stated) | inactive: -2.97% | – |
| Cc1ncc(CO)c(/C=N/NC(=O)c2ccc(O)cc2)c1O | – | inconclusive: 19 µM [inhibitor, single point] |
| Cc1noc(-c2ccc(-c3noc(-c4ccccc4)n3)cc2)n1 | – | inconclusive: 1.07 µM [inhibitor, full curve] |
| COc1ccccc1NC(=O)Nc1ccc(C(N)=O)cc1 | – | inconclusive: 21.3 µM [inhibitor, partial curve] |
| CC1Cc2nc(SCC(=O)Nc3ccc4c(c3)OCCO4)n(C)c(=O)c2S1 (configuration not stated) | – | inconclusive: 26.9 µM [inhibitor, single point] |
| CCC(C(=O)NCc1ccc2c(c1)CCN2C(=O)c1ccc(F)cc1)c1ccccc1 (configuration not stated) | – | inconclusive: 26.9 µM [inhibitor, partial curve, poor fit] |
| O=C(CC1(O)C(=O)c2ccccc2C1=O)c1ccccc1 | – | inconclusive: 19 µM [inhibitor, partial curve] |
| O=C(Nc1ccc(N2CCCC2)c(Cl)c1)c1cccs1 | – | active: 2.39 µM |
| Cc1nn(-c2ccccc2)c(NC(=O)c2cccs2)c(-c2ccccc2Cl)c1=O | inactive: -2.09% | – |
| COCCN1Cc2cccc(C(=O)Nc3cccc(-c4nc5ccccc5[nH]4)c3)c2C1=O | – | inconclusive: 6.01 µM [inhibitor, full curve] |
| CCCCc1ccc(-c2ccc(Br)cc2)nc1 | – | active: 1.2 µM |
| O=C(CNC(=O)[C@@H]1Cc2ccccc2CN1)Nc1ccc2c(c1)OCCO2 | – | inconclusive: 26.9 µM [inhibitor, single point] |
| c1ccc(CCc2cn(C[C@H]3CC[C@@H]([C@@H]4CC[C@H](Cn5cc(CCc6ccccc6)nn5)O4)O3)nn2)cc1 | inactive: 4.18% | – |
| COc1ccc(C(=O)COC(=O)c2cc(S(=O)(=O)NCc3ccccc3)ccc2O)cc1 | – | inconclusive: 21.3 µM [inhibitor, single point] |
| COCc1c(C(=O)N2CCN(Cc3nc4ccccc4s3)CC2)oc2ccccc12 | – | inconclusive: 23.9 µM [inhibitor, single point] |
| COc1cccc(NC(=O)c2ccc3nsnc3c2)c1 | – | active: 12 µM |
| COC(=O)c1cccn(CC(=O)c2ccc(Cl)cc2Cl)c1=O | – | active: 15.1 µM |
| CCOC(=O)c1[nH]c(C)c(C(=O)c2ccc(C)cc2)c1C | – | inconclusive: 23.9 µM [inhibitor, single point] |
| Cc1ccc(C(=O)OCC(=O)N2CCC(c3ccccc3)=N2)c(C)c1 | – | inconclusive: 30.1 µM [inhibitor, partial curve, poor fit] |
